Source: PubChem BioAssay AID651820 (National Center for Advancing Translational Sciences (NCATS), 2012)
The whole screen tested about 340,000 compounds, of which about 12,000 (3.5%) were called active. Inconclusive results, whose numbers are uncertain, are shown with a selection of clear calls. Calls come from the whole dose curve; as a rule, active = well fitted inhibition curve with a large enough effect; inconclusive = small, poorly fitted or top-dose-only effect, or another doubt; inactive = no such curve, though single readings can be large or run the other way. No potency is given beside an inconclusive call; the fits are too rough.

Assay: qHTS Assay for Inhibitors of Hepatitis C Virus (HCV)
Details: Huh7.5.1 HCVcc-Cre (HCVcc is cell-culture hepatitis C virus) infection, luciferase reporter, 44 h; activity change, negative = inhibition: at 41.8 µM (top of the series) unless noted
Procedure, shortened: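 Seed cells (1,000/well) for 4 h; treat with compound and infect with HCVcc-Cre, moi about 0.5. Incubate 44 h, then detect luciferase activity.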
% is set by controls: 0 for no effect and ±100 for the full control effect; potency is the fitted concentration of half-maximal effect; tags give direction and shape of the fitted curve.

Structure (SMILES) | activity change, negative = inhibition | Potency
COCC(C)NC(=O)/C=C/c1ccc(OC)cc1 (stereo unspecified) | inactive: 7.69% | –
O=C(NNC(=O)c1sccc1-n1cccc1)c1ccc(F)cc1 | inactive: -1.46% | –
CCN(CC)c1ccc(NC(=O)c2ccc(NC(=O)C3CCCO3)cc2)c(C)c1 (stereo unspecified) | inactive: -28.2% | –
O=C(COc1ccccc1Cc1ccccc1)Nc1cccc(S(=O)(=O)N2CCOCC2)c1 | – | inconclusive [inhibitor, single point]
O=C(N/N=C/c1cccc([N+](=O)[O-])c1)c1cc2ccccc2o1 | – | active: 11.2 µM
CN(CC(=O)Nc1ccc(Cl)cc1)C(=O)CNC(=O)c1ccc2c(c1)OCO2 | inactive: -21.6% | –
COc1ccc2c(c1)nc(N)n2Cc1ccccc1 | – | inconclusive [inhibitor, single point]
COc1ccc(CCNc2ccc([N+](=O)[O-])cn2)cc1 | – | inconclusive [inhibitor, single point]
Cc1oc(C(=O)O)cc1CSc1nnc(-c2ccccc2)n1C | – | inconclusive [inhibitor, single point]
COc1ccc(S(=O)(=O)Nc2cc3c4c(c2)C(C)C(=O)N4CCC3)cc1OC (stereo unspecified) | – | inconclusive [inhibitor, single point]
On1c2c(c3c4nonc4ccc31)CCCC2 | – | inconclusive [inhibitor, single point]
Cc1ccc(NC(=O)C2OCCc3ccccc32)cc1Cl (stereo unspecified) | inactive: -7.12% | –
COc1ccc([N+](=O)[O-])cc1NC(=S)NC(NC(C)=O)C(Cl)(Cl)Cl (stereo unspecified) | – | inconclusive [inhibitor, single point]
COc1ccc(CNC(=O)c2cc3ccccc3o2)cc1OC | – | inconclusive [inhibitor, single point]
CCOc1ccc(C(=O)NC(=S)Nc2ccccc2N2CCCCC2)cc1[N+](=O)[O-] | – | inconclusive [inhibitor, partial curve]
COc1ccccc1NS(=O)(=O)c1cc(NC(=O)c2cc(=O)[nH]c3ccccc23)ccc1N1CCOCC1 | – | active: 25.1 µM
CN1CCN(C(=O)CN2C(=O)NC(C)(c3ccc4ccccc4c3)C2=O)CC1 (stereo unspecified) | inactive: -16.3% | –
COc1cc(Cl)c(CNC[C@H]2O[C@@H](n3cnc(C(N)=O)n3)[C@H](O)[C@@H]2O)c(Cl)c1O | inactive: 21.6% | –
N/C(=N\S(=O)(=O)c1ccccc1)c1ccc([N+](=O)[O-])cc1 | inactive: 3.92% | –
CCOc1cc2[nH]c(=S)n(CC3CCCO3)c(=O)c2cc1OCC (stereo unspecified) | – | inconclusive [inhibitor, full curve, poor fit]
COc1cccc(OCCCCN2CC(C)OC(C)C2)c1 (stereo unspecified) | inactive: 17.4% | –
CCN1c2ccccc2-c2nc3ccccc3n2C1c1ccccn1 (stereo unspecified) | – | inconclusive [inhibitor, single point]
CC1CCCCC1NC(=O)Cn1c(CN2CCCCC2)nc2ccccc2c1=O (stereo unspecified) | – | inconclusive [inhibitor, single point]

Structure (SMILES) | activity change, negative = inhibition | Potency
O=[N+]([O-])c1cccc(CSc2nnc3ccccn23)c1 | inactive: -5.06% | –
C[C@@H](CSc1ccccc1)CN1CC[C@H](NC(=O)OCc2ccccc2)CCC1=O | – | active: 11.2 µM
Nc1nnc(SCc2cccc(C(F)(F)F)c2)s1 | – | inconclusive [inhibitor, single point]
COC(=O)CSC1=C(C#N)C(c2ccc(C)cc2)C2=C(CCCC2=O)N1 (stereo unspecified) | – | inconclusive [inhibitor, single point]
C[C@@]12C(=O)Nc3cc(F)c(F)cc3C(=O)N1[C@H]1c3ccccc3OC[C@@H]1[C@@H]2c1ccccc1 | – | inconclusive [inhibitor, partial curve]
O=C(Cn1nnc(-c2ccccc2)n1)c1ccccc1 | inactive: 0.709% | –
Cc1ccc(-c2ccc(SCC(=O)c3ccccc3)nn2)cc1 | inactive: -24.6% | –
COc1cc(-c2nc(Cc3c(F)cccc3Cl)no2)cc(OC)c1OC | – | inconclusive [inhibitor, partial curve, poor fit]
CCCCNc1cc(F)nc(N)n1 | inactive: 21% | –
CCCCC1=NN(C(=O)c2cccnc2)C(O)(C(F)(F)F)C1 (stereo unspecified) | – | inconclusive [inhibitor, single point]
COc1ccc(Cl)cc1NC(=S)NCCC(c1ccccc1)c1ccccc1 | – | inconclusive [inhibitor, single point]
CCCCCN(C(=O)CCC(=O)OCC(=O)c1ccc(C(C)CC)cc1)c1c(N)n(CCCC)c(=O)[nH]c1=O (stereo unspecified) | – | inconclusive [inhibitor, single point]
Cc1cccc(NS(=O)(=O)c2ccc(C)c(C(=O)NCC(c3ccco3)N3CCCCC3)c2)c1 (stereo unspecified) | – | inconclusive [inhibitor, partial curve]
COc1cc(OC)c(C2N(c3cc(C)on3)C(=O)C3CCCN32)cc1OC (stereo unspecified) | inactive: -35.5% | –
Cc1ccc(C#CC[N+]2(C)CCCCC2)cc1 | inactive: 15.4% | –
Cc1ccc(C)c(NC(=S)NC(NC(=O)/C=C/c2ccccc2)C(Cl)(Cl)Cl)c1 (stereo unspecified) | – | inconclusive [inhibitor, partial curve]
O=C(O)c1ccccc1C(=O)Nc1ccc(Oc2ccc3ccccc3c2)cc1 | – | inconclusive [inhibitor, single point]
CCOc1ccc(-c2nnc3ccc(SCc4ccc(C(=O)OC)o4)nn23)cc1 | – | inconclusive [inhibitor, single point]
CCN(CC)C(=O)C(=O)Nc1ccc(Oc2ccccc2)cc1 | – | inconclusive [inhibitor, single point]
Cc1ccc(CCNC(=O)C2CCC(=O)N(Cc3ccccc3F)C2)o1 (stereo unspecified) | – | inconclusive [inhibitor, single point]
Cc1ccc(N=C2NC(=O)/C(=C\c3cccs3)S2)cc1C | – | inconclusive [inhibitor, single point]
CCn1c(SCc2nc(-c3ccc(OC)c(OC)c3)no2)nnc1-c1cccs1 | – | inconclusive [inhibitor, single point]
O=C(c1ccco1)N1CCN(C(=O)C2CCN(S(=O)(=O)c3cnc[nH]3)CC2)CC1 | – | active: 31.6 µM
